Measurements reported in article doi:10.1101/2021.07.03.451002, “Multivalent, asymmetric IL-2-Fc fusions provide optimally enhanced regulatory T cell selectivity” (bioRxiv, 2021).

Target: T1, IL2Rα ectodomain (UniProt P01589 22-240)
T1 construct: IL2Rα (interleukin-2 receptor subunit alpha, CD25) ectodomain; source: purified (Nickel-NTA spin columns)
T1 sequence (looked up): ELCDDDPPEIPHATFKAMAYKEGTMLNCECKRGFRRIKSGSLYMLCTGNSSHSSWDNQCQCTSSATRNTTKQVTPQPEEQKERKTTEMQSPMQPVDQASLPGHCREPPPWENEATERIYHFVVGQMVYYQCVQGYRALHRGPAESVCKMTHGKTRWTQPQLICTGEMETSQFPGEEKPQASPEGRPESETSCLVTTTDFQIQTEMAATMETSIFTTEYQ
Experiment: BLI; Octet RED384; monomeric biotinylated IL-2/Fc fusions loaded on Streptavidin biosensors at roughly 10% of saturation; IL2Rα from 25 nM to 20 pM; PBS + 0.1% BSA; KD from equilibrium binding
Details: both partners purified

B1: R38Q/H16N IL-2, monomeric biotinylated IL-2/Fc fusion protein (Fc fusion)
chain: not shown
modifications: biotin (BirA enzyme; AviTag)
notes: interleukin-2, human, with R38Q and H16N; IL-2 is joined to the Fc by a (G4S)4 linker; source: Expi293, purified (MabSelect resin), biotinylated with BirA
  binding result: binds
